We go through 115 sequences from the BET-seq Pho4 binding data (Le et al. 2018).

Some of the results follow. Values were computed here from the reads of four pooled replicates and scatter widely.

This experiment has as its target T1, Pho4 (S. cerevisiae) (UniProt P07270).
T1 sequence: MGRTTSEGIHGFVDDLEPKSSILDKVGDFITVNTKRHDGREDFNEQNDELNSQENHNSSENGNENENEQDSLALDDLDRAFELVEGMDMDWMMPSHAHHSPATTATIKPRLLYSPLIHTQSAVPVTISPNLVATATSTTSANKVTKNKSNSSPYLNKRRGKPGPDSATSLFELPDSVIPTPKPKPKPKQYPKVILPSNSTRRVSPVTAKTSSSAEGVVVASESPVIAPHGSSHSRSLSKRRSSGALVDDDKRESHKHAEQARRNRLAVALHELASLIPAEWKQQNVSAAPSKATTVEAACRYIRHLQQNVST
The experiment in a line: relative binding free energy (BET-seq); higher = weaker binding. Particulars: reference: library average.
For AGGGACACGTGTTGGT, the “relative binding free energy” value was -0.12 kcal/mol.

As for ACGGGCACGTGTGGCA, the “relative binding free energy” value was -0.03 kcal/mol.

On to AGATACACGTGGGGTA, for which the “relative binding free energy” value is -0.16 kcal/mol.

Consider GTTGTCACGTGGGAGC, for which the “relative binding free energy” value was -0.08 kcal/mol.

For the sequence GCTTCCACGTGGGGTT, the “relative binding free energy” value was -0.03 kcal/mol.

Turning to GTCGTCACGTGTGCGA, the “relative binding free energy” value amounted to 0.21 kcal/mol.

As to TGTTACACGTGAAGTT, the “relative binding free energy” value turned out to be 0.43 kcal/mol.

Consider TTGCGCACGTGGGGCC, for which the “relative binding free energy” value was -0.08 kcal/mol.

As for GGGAGCACGTGTGGGT, the “relative binding free energy” value is -0.09 kcal/mol.

As to GGTCACACGTGGGTCG, the “relative binding free energy” value is -0.05 kcal/mol.

For the sequence TTTATCACGTGTGGTC, the “relative binding free energy” value worked out at 0.23 kcal/mol.

GTTTTCACGTGTTAGT: the “relative binding free energy” value turned out to be 0.3 kcal/mol.

Regarding TGTGACACGTGTTTTA, the “relative binding free energy” value is -0.03 kcal/mol.

On to CTTCTCACGTGTTGTT, for which the “relative binding free energy” value is 0.08 kcal/mol.

On to AGGCTCACGTGGTTGA, for which the “relative binding free energy” value is 0.23 kcal/mol.

Take GGCCACACGTGTGTGG: the “relative binding free energy” value was found to be 0.11 kcal/mol.

As for GAGGGCACGTGATTGT, the “relative binding free energy” value amounted to 0.01 kcal/mol.

For GTACACACGTGTTTTT, the “relative binding free energy” value worked out at 0.07 kcal/mol.

Regarding TGTCGCACGTGTGAAA, the “relative binding free energy” value came out at 0.13 kcal/mol.

Turning to GGTTTCACGTGTACGA, the “relative binding free energy” value is 0.29 kcal/mol.

With GGTTACACGTGGTAAC, the “relative binding free energy” value came to 0.19 kcal/mol.

With ATGGGCACGTGAGAGC, the “relative binding free energy” value came to 0.15 kcal/mol.

In the case of GGGTGCACGTGTTTAA, the “relative binding free energy” value is 0.06 kcal/mol.

As to AGCTTCACGTGATGGG, the “relative binding free energy” value is 0.44 kcal/mol.

Take TGGAACACGTGCTGAG: the “relative binding free energy” value was found to be 0.16 kcal/mol.

TAATTCACGTGTCAGT: the “relative binding free energy” value was determined as 0.3 kcal/mol.

With GATGCCACGTGGGGCG, the “relative binding free energy” value was -0.1 kcal/mol.

For GATGACACGTGGTCTG, the “relative binding free energy” value is -0.04 kcal/mol.

Regarding TATTACACGTGTCAGT, the “relative binding free energy” value stood at 0.07 kcal/mol.

Turning to ATGTTCACGTGTTTGG, the “relative binding free energy” value was 0.27 kcal/mol.

Regarding GCGTACACGTGGTGTG, the “relative binding free energy” value is 0.04 kcal/mol.

Turning to TATGACACGTGTTCAT, the “relative binding free energy” value came to 0.05 kcal/mol.

TCTAGCACGTGGGTTT: the “relative binding free energy” value is -0.19 kcal/mol.

With TAGGACACGTGGCGTA, the “relative binding free energy” value was determined as 0.01 kcal/mol.

Consider TTGTGCACGTGTACGC, for which the “relative binding free energy” value turned out to be 0.01 kcal/mol.

Turning to ATGGTCACGTGACGGC, the “relative binding free energy” value came out at 0.31 kcal/mol.

GACTTCACGTGGGGAG: the “relative binding free energy” value stood at 0.19 kcal/mol.

In the case of GAGATCACGTGGGTAT, the “relative binding free energy” value was found to be 0.12 kcal/mol.

Consider GGGATCACGTGGGTTC, for which the “relative binding free energy” value was found to be 0.2 kcal/mol.

Consider GTTTGCACGTGGACAG, for which the “relative binding free energy” value amounted to 0.08 kcal/mol.

For ATATTCACGTGACAGT, the “relative binding free energy” value stood at 0.4 kcal/mol.

For the sequence TTATCCACGTGATTGT, the “relative binding free energy” value worked out at 0.15 kcal/mol.

Turning to GGTTCCACGTGTTGAA, the “relative binding free energy” value came out at 0.15 kcal/mol.

With TTGGTCACGTGTGAAT, the “relative binding free energy” value turned out to be 0.22 kcal/mol.

For the sequence CGGGGCACGTGTGAAG, the “relative binding free energy” value was determined as 0.01 kcal/mol.

Regarding TGTTTCACGTGCTTCG, the “relative binding free energy” value came out at 0.25 kcal/mol.

Take AGCGACACGTGATTGG: the “relative binding free energy” value was 0.32 kcal/mol.

On to TTTGGCACGTGGATAT, for which the “relative binding free energy” value is -0.12 kcal/mol.

Consider GGAGACACGTGCAGTG, for which the “relative binding free energy” value worked out at 0.03 kcal/mol.

Consider ATGATCACGTGTATGA, for which the “relative binding free energy” value amounted to 0.08 kcal/mol.

For CGAGTCACGTGTGGCT, the “relative binding free energy” value stood at 0.12 kcal/mol.

As to GTTTGCACGTGGGAGC, the “relative binding free energy” value is -0.02 kcal/mol.

In the case of GGTTGCACGTGGATAT, the “relative binding free energy” value was found to be 0.01 kcal/mol.

With TTGCACACGTGGGGAG, the “relative binding free energy” value is -0.15 kcal/mol.

On to TGGTGCACGTGTTAGC, for which the “relative binding free energy” value is -0.07 kcal/mol.

With TGTAGCACGTGCGTGA, the “relative binding free energy” value is -0.11 kcal/mol.

For the sequence GTATGCACGTGGTATG, the “relative binding free energy” value is -0.14 kcal/mol.

GTGTGCACGTGAAATT: the “relative binding free energy” value is 0.26 kcal/mol.

On to GGGCACACGTGTGTAA, for which the “relative binding free energy” value worked out at 0.23 kcal/mol.

Take GTTATCACGTGGGAGC: the “relative binding free energy” value came to 0.22 kcal/mol.

Consider CGAAGCACGTGGGTTG, for which the “relative binding free energy” value was -0.17 kcal/mol.

On to TGGGGCACGTGGTGGT, for which the “relative binding free energy” value is -0.12 kcal/mol.

As for AGTGTCACGTGTCAGT, the “relative binding free energy” value is 0.05 kcal/mol.

GCTGGCACGTGAGTTT: the “relative binding free energy” value came to 0.2 kcal/mol.

Turning to GAGTACACGTGTGCTT, the “relative binding free energy” value was found to be 0.23 kcal/mol.

Regarding GAGCTCACGTGGTAGG, the “relative binding free energy” value was 0.27 kcal/mol.

Consider TTCGTCACGTGATGTG, for which the “relative binding free energy” value is 0.08 kcal/mol.

For the sequence CGGGACACGTGTGGTT, the “relative binding free energy” value stood at 0.08 kcal/mol.

For the sequence CGTCACACGTGGTAGG, the “relative binding free energy” value is -0.01 kcal/mol.

Regarding TGCGTCACGTGGGAGA, the “relative binding free energy” value is -0.11 kcal/mol.

Take TAGGGCACGTGGACGG: the “relative binding free energy” value is -0.05 kcal/mol.

Regarding AATAACACGTGGTGGA, the “relative binding free energy” value was -0.06 kcal/mol.

As to ATATTCACGTGATAAG, the “relative binding free energy” value was found to be 0.22 kcal/mol.

For the sequence CAAGTCACGTGTGGAG, the “relative binding free energy” value was 0.33 kcal/mol.

In the case of CGGGTCACGTGTGCCG, the “relative binding free energy” value was determined as 0.16 kcal/mol.

Take TGTCACACGTGAGTTA: the “relative binding free energy” value was 0.17 kcal/mol.

Consider ATTCACACGTGAAGGG, for which the “relative binding free energy” value came out at 0.32 kcal/mol.

On to GTTGTCACGTGATGGA, for which the “relative binding free energy” value came out at 0.27 kcal/mol.

For the sequence TGTAGCACGTGTAATT, the “relative binding free energy” value stood at 0.06 kcal/mol.

With AGGGTCACGTGCGGGG, the “relative binding free energy” value was found to be 0.13 kcal/mol.

For GGATGCACGTGGGGTT, the “relative binding free energy” value is -0.13 kcal/mol.

On to GAGTGCACGTGCAGTG, for which the “relative binding free energy” value turned out to be 0.04 kcal/mol.

On to GGCAGCACGTGTGAGT, for which the “relative binding free energy” value was 0.09 kcal/mol.

Regarding AGTTGCACGTGGGGTT, the “relative binding free energy” value was -0.14 kcal/mol.

In the case of AGTGGCACGTGGTGTG, the “relative binding free energy” value was -0.17 kcal/mol.

Take ATTTTCACGTGATGGT: the “relative binding free energy” value stood at 0.33 kcal/mol.

As to TTGGACACGTGTATTG, the “relative binding free energy” value was found to be 0.02 kcal/mol.

On to TAAAGCACGTGTGGGC, for which the “relative binding free energy” value is -0.07 kcal/mol.

Consider AGAGCCACGTGGTTTG, for which the “relative binding free energy” value was -0.17 kcal/mol.

As to GGTGACACGTGGGCTC, the “relative binding free energy” value is -0.06 kcal/mol.

As to GGGGCCACGTGGTTTT, the “relative binding free energy” value is -0.01 kcal/mol.

With GTGATCACGTGAGGTC, the “relative binding free energy” value worked out at 0.28 kcal/mol.

Take CTGTTCACGTGGGGAT: the “relative binding free energy” value worked out at 0.17 kcal/mol.

With GGTTTCACGTGCTTTC, the “relative binding free energy” value was 0.42 kcal/mol.

On to TATGTCACGTGTGTCG, for which the “relative binding free energy” value worked out at 0.06 kcal/mol.

TTTCACACGTGAGTTG: the “relative binding free energy” value came out at 0.33 kcal/mol.

Turning to GGTTCCACGTGAGGCT, the “relative binding free energy” value came out at 0.28 kcal/mol.

As for GCGGACACGTGTTGGC, the “relative binding free energy” value stood at 0.21 kcal/mol.

As to GGGTTCACGTGTTCGC, the “relative binding free energy” value amounted to 0.39 kcal/mol.

Turning to CGTTGCACGTGGGCAG, the “relative binding free energy” value was -0.11 kcal/mol.

As to CGATTCACGTGAGAGG, the “relative binding free energy” value amounted to 0.3 kcal/mol.

On to CTTTTCACGTGGTGGC, for which the “relative binding free energy” value was found to be 0.23 kcal/mol.

As for TTGTCCACGTGGATTT, the “relative binding free energy” value came to 0.22 kcal/mol.

In the case of CGGGTCACGTGAGGGT, the “relative binding free energy” value came to 0.28 kcal/mol.

In the case of TGTGACACGTGGTTTA, the “relative binding free energy” value was 0 kcal/mol.

GTCAACACGTGTGGGG: the “relative binding free energy” value turned out to be 0.11 kcal/mol.

Turning to GCGGGCACGTGTGAGG, the “relative binding free energy” value turned out to be 0.02 kcal/mol.

Take AGAGGCACGTGAGGCT: the “relative binding free energy” value was -0.01 kcal/mol.

In the case of GTATTCACGTGCCTGG, the “relative binding free energy” value turned out to be 0.28 kcal/mol.

As to TATTGCACGTGTAAGT, the “relative binding free energy” value is -0.02 kcal/mol.

In the case of GAACTCACGTGGTTTT, the “relative binding free energy” value stood at 0.23 kcal/mol.

In the case of TTAAACACGTGGGAAG, the “relative binding free energy” value is -0.01 kcal/mol.

For the sequence CGTATCACGTGTTGGT, the “relative binding free energy” value is 0.14 kcal/mol.

GAGGCCACGTGTGGTG: the “relative binding free energy” value amounted to 0.06 kcal/mol.

For the sequence GGATACACGTGGTTCG, the “relative binding free energy” value amounted to 0.08 kcal/mol.
